From PubChem BioAssay AID2202238 (Ras Initiative Chemistry Research Team, Frederick National …, 2025)
The other results are listed elsewhere or left out. These are further read-outs of the screen, such as a control signal, another cell line or another target. No call is given for them.

Biological target: GTPase KRas (Homo sapiens) (UniProt P01116)
Experiment: Cysteine mutants labelled by reactive fragments (mass read-out) (AID 2202238)
Set-up: protein at 5 µM with 500 µM competing thiol for 1.5 h
Conditions: KRAS G12D cysteine mutants, disulfide tethering, MALDI-TOF labeling, stronger effect = higher value, fragment at 500 µM
[1] = measured here: G75C mutant labeling
[2] = measured here: H94C mutant labeling
[3] = measured here: I36C mutant labeling
[4] = measured here: L120C mutant labeling
[5] = measured here: M67C mutant labeling
[6] = measured here: M72C mutant labeling
[7] = measured here: N86C mutant labeling
[8] = measured here: P121C mutant labeling
[9] = measured here: S122C mutant labeling
[10] = measured here: S136C mutant labeling
[11] = measured here: G60C mutant labeling
[12] = measured here: N26C mutant labeling

UniProt P01116, sequence (P01116 whole entry, looked up, the tested form may be a part): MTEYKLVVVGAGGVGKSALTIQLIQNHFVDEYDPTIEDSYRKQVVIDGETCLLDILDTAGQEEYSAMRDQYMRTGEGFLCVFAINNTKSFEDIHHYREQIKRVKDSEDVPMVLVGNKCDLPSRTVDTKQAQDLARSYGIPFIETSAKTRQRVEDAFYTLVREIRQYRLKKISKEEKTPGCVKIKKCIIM

SMILES | percent labeling [1] [%] | percent labeling [2] [%] | percent labeling [3] [%] | percent labeling [4] [%] | percent labeling [5] [%] | percent labeling [6] [%] | percent labeling [7] [%] | percent labeling [8] [%] | percent labeling [9] [%] | percent labeling [10] [%] | percent labeling [11] [%] | percent labeling [12] [%]
O=C(CCS)NCCc1ccc2ncccc2c1 | 21.4 | 31.4 | 40.1 | 27.5 | 39.5 | 34.7 | 31.2 | 30 | 32 | 48.8 |  | 
O=C(NCCS)C1(c2ccccc2)CC2(CCC2)C1 | 11.9 | 12.7 | 11.9 | 20.1 | 12 | 22.6 | 8.1 | 13 | 12.3 | 29.2 | 36.4 | 25.6
O=C(CCS)NCC1CCN(C(=O)c2ccccc2)CC1 | 13.8 | 36.8 | 51.1 | 32 | 60.1 | 30.3 | 26.8 | 36.2 | 39.6 | 54.3 |  | 
CC(Cn1cccn1)(NC(=O)CCS)C(N)=O (stereo unspecified) | 0 | 29.1 | 44.7 | 28.3 | 26.1 | 14 | 22.2 | 30.2 | 31.5 | 44.6 |  | 
O=C(CCS)NCc1cccc(-c2ccccn2)c1 | 19 | 33.5 | 47.2 | 24.1 | 46 | 44.2 | 26 | 33.3 | 25.4 | 53.6 |  | 
O=C(CCS)N1CCC(Oc2ccccc2Cl)CC1 | 31.5 | 27.8 | 21.5 | 19.6 | 68.9 | 36.6 | 21.4 | 22.4 | 17.4 | 42.8 |  | 
Cc1c(C(=O)NCCS)ccc2c1OC(F)(F)O2 | 11.3 | 18.9 | 15.5 | 18.3 | 13.7 | 51.3 | 14.7 | 23 | 15.4 | 22.6 | 50.4 | 35.6
Cc1nc(-c2c[nH]c(C(=O)NCCS)c2)cs1 | 18.8 | 23 | 27.8 | 26.4 | 20.5 | 56.4 | 18.1 | 19.7 | 17.8 | 33.6 | 31.1 | 49.9
O=C(NCCS)[C@@H]1OCC[C@@H]1Cn1cccn1 | 8.7 | 22.8 | 16.3 | 38.8 | 25.3 | 13.2 | 19.6 | 27 | 28 | 46.8 | 21 | 28.4
CN(C(N)=O)c1cccc(NC(=O)CCS)c1 | 11 | 28.7 | 21.4 | 22.7 | 25.7 | 23 | 15.6 | 24.6 | 31.1 | 40.9 |  | 
O=C(CCS)Nc1cnn(C2CCCC2)c1 | 22.1 | 37.1 | 40.1 | 36.2 | 28.9 | 45 | 25.5 | 35.8 | 40.8 | 59.4 |  | 
CCc1nn(C)c(CC(=O)NCCS)c1Cl | 21.3 | 37.2 | 29.9 | 43.2 | 35.5 | 35.1 | 28.5 | 35.2 | 34.3 | 47.5 | 50.5 | 41.6
CCCN1C(=O)c2ccccc2N2C(=O)CCC12C(=O)NCCS (stereo unspecified) | 8 | 29.1 | 26.1 | 29.6 | 32.5 | 18.7 | 16.4 | 28.6 | 27.2 | 51 | 34 | 34
O=C(NCCS)c1cc(Br)c2c(c1)C(=O)NCCO2 | 22.3 | 24.2 | 18.3 | 24.8 | 26.6 | 55.4 | 19 | 20.8 | 27.5 | 48.4 | 58.6 | 38
Cc1ccc(-c2nc(C)c(C(=O)NCCS)s2)c(F)c1 | 8.5 | 14.1 | 10.3 | 10.1 | 10.6 | 41.6 | 10.6 | 13.7 | 2.6 | 12.5 | 18.6 | 25.1
O=C(CCCn1nnc(-c2ccccc2)n1)NCCS | 19.3 | 23.9 | 18.7 | 27.4 | 43.3 | 22.4 | 20.8 | 21.5 | 19.8 | 27.4 | 35.1 | 35.1
COc1cccc(C2C(NC(=O)CCS)CCN2C2CC2)c1 (stereo unspecified) | 18.8 | 36.9 | 42.1 | 33.3 | 45.7 | 24.2 | 14.4 | 33.9 | 31.6 | 63.5 |  | 
O=C(CCS)NCC1CN(c2nncs2)CCO1 (stereo unspecified) | 6.8 | 34.3 | 37.7 | 31.6 | 43.9 | 21.5 | 35.5 | 36 | 33.9 | 54.5 |  | 
O=C(CCS)Nc1cccc2[nH]c(=O)ccc12 | 16.5 | 35.9 | 38 | 20.8 | 32.4 | 31.2 | 30.2 | 25.4 | 27.2 | 45.5 |  | 
O=C(NCCS)c1c(-n2cccc2)sc2c1CCC2 | 9.6 | 24.3 | 7.7 | 16.9 | 11.8 | 3.8 | 4.3 | 13.5 | 6.4 | 13.4 | 57.9 | 9.4
O=C(CN1C(=O)C(F)(F)Oc2ccccc21)NCCS | 13 | 19.7 | 19.5 | 29.1 | 16.7 | 22.9 | 16.3 | 17.2 | 14.3 | 27.8 | 31.6 | 27.6
O=C(NCCS)C(O)c1cccnc1 (stereo unspecified) | 18.2 | 31.1 | 26.6 | 40.1 | 31.1 | 22 | 27.2 | 31.2 | 29.5 | 46.2 | 30.4 | 35.8
O=C(CCS)N1CCOc2cc(Br)c(F)cc21 | 27.2 | 19.9 | 18.8 | 15.5 | 21.1 | 44 | 16.4 | 19.8 | 7.8 | 23.4 |  | 

SMILES | percent labeling [1] [%] | percent labeling [2] [%] | percent labeling [3] [%] | percent labeling [4] [%] | percent labeling [5] [%] | percent labeling [6] [%] | percent labeling [7] [%] | percent labeling [8] [%] | percent labeling [9] [%] | percent labeling [10] [%] | percent labeling [11] [%] | percent labeling [12] [%]
CC(C)(c1cccc(NC(=O)CCS)c1)C(F)(F)F | 13.2 | 20.9 | 17.2 | 17 | 11.8 | 39.1 | 12 | 14.5 | 13.7 | 27.5 |  | 
O=C(NCCS)c1cc2c(ccc3ccccc32)o1 | 12 | 8.4 | 6 | 13.4 | 7.6 | 30.7 | 10.4 | 9.4 | 7.9 | 11.2 | 17.9 | 21
O=C(CCS)NC1CS(=O)(=O)C2CN(Cc3ccccc3)CC12 (stereo unspecified) | 12.4 | 27.2 | 47.8 | 25.8 | 58.1 | 24.5 | 19.3 | 33.3 | 31.7 | 53.4 |  | 
CCCC(NC(=O)c1cc2ccccc2s1)C(=O)NCCS (stereo unspecified) | 15.7 | 10.2 | 7.1 | 17 | 22.1 | 23 | 5.8 | 11.5 | 4.7 | 7.3 | 23.1 | 21
Cc1ccc(CN(CCO)C(=O)CCS)o1 | 21.8 | 36.4 | 25.1 | 26.9 | 29.4 | 28.4 | 24.6 | 29.9 | 33.5 | 54.5 |  | 
O=C(CCS)Nc1cccc(Cc2nc3cccc(Cl)c3s2)c1 | 14 | 19.4 | 37.6 | 11.5 | 30.1 | 35.1 | 20 | 14.3 | 10.4 | 18.8 |  | 
Cn1c(=O)n(CC(=O)NCCS)c2ccccc21 | 21.1 | 35.1 | 36.2 | 59.1 | 31 | 38.3 | 24.6 | 33.5 | 32.9 | 61.2 | 43.7 | 41.7
O=C(CCS)N1C[C@@H]2C[C@H](C1)[C@@H]1CCCC(=O)N1C2 | 14 | 21.8 | 22.8 | 26.3 | 28.1 | 9.7 | 19.9 | 24.5 | 32.4 | 38 |  | 
Cn1cc(CNC(=O)CCS)c(=O)[nH]c1=O | 0 | 22.4 | 29.4 | 18.5 | 32.4 | 7.9 | 12.8 | 37.5 | 26.5 | 39.6 |  | 
Cc1cc(NC(=O)CCS)nn1CCC#N | 15.2 | 29.9 | 36.9 | 30.3 | 30.3 | 24.7 | 20.4 | 34 | 31.5 | 48.4 |  | 
O=C(NCCS)C1Cc2cc(Br)cnc2C1 (stereo unspecified) | 20.6 | 40 | 34.7 | 46 | 36.7 | 39.1 | 30.7 | 39.8 | 30.9 | 54.4 | 56.9 | 52.2
O=C(NCCS)C1CCN(S(=O)(=O)c2ccc3[nH]c(=O)cnc3c2)CC1 | 15.7 | 17.6 | 21.4 | 16.7 | 17.1 | 21.9 | 16.5 | 19.1 | 16.2 | 21.1 | 36.1 | 34.3
Cn1cc(C(C(=O)NCCS)N2CCOCC2)cn1 (stereo unspecified) | 7.7 | 25.1 | 21.7 | 28.1 | 31.2 | 6.9 | 20.7 | 30.8 | 27 | 33.5 | 17.2 | 30.7
O=C(NCCS)c1ccnc(OC2CCOC2)c1 (stereo unspecified) | 19.2 | 29.5 | 25.1 | 36.9 | 30.5 | 39.6 | 23.4 | 29.4 | 31 | 53.5 | 30.8 | 46.1
Cc1nc(-c2cc3c(s2)CCN(C(=O)CCS)C3)cs1 | 14.3 | 18.6 | 21.3 | 12 | 19 | 39.9 | 14.3 | 12.8 | 9.9 | 17.7 |  | 
O=C(NCCS)c1ccnc(-c2ccc(Cl)cc2)n1 | 15.9 | 13.3 | 8.3 | 17.4 | 8.8 | 30.8 | 10.8 | 11.2 | 9.1 | 14.2 | 28.9 | 23
CCc1cc(=O)c2cc(NC(=O)CCS)ccc2[nH]1 | 8.2 | 21.8 | 26 | 18.9 | 25.5 | 24.7 | 18 | 18.9 | 18.6 | 36.6 |  | 
Cc1ccc(-c2c[nH]cc2C(=O)NCCS)s1 | 0 | 2.6 | 0 | 0 | 2.1 | 3 | 0 | 2 | 0 | 11.9 | 3.7 | 2.8
O=C(CCS)NCc1cc2n(n1)CCCO2 | 12.4 | 33.6 | 43 | 25.6 | 37.6 | 20.9 | 39.4 | 38.8 | 37 | 55.1 |  | 
Cn1cc(S(=O)(=O)N2CCOCC2)cc1C(=O)NCCNC(=O)CCS | 8.8 | 22.4 | 35.2 | 25.3 | 28.4 | 14.3 | 15.8 | 25 | 29.9 | 45.3 |  | 
O=C(NCCS)c1cccc(OCc2cn3ccccc3n2)c1 | 9.7 | 17.9 | 12.9 | 13.2 | 20.4 | 48.4 | 8.1 | 11.3 | 8.9 | 16.9 | 30.8 | 37.3
CC(C)c1n[nH]c(CC2CCN(C(=O)CCS)CC2)n1 | 11.2 | 33.5 | 38.4 | 42.3 | 41.1 | 18.5 | 29.9 | 34.8 | 34.6 | 53.5 |  | 
N#Cc1cccc(OCc2ccoc2C(=O)NCCS)c1 | 9 | 14 | 8.8 | 14.7 | 11.3 | 35 | 11.2 | 12.1 | 8.9 | 15.1 | 23.4 | 18.9
